Whole data set: some 33,000 sequences, median “E-score (-0.5 to 0.5)” near -0.013, cut for the highest 2% near 0.3. Some of the results follow.
biological target: T1, Msn1 (UniProt P22148); experiment: PBM E-score (8-mer binding enrichment) (E-score (-0.5 to 0.5)); higher = stronger / more preferred TF binding; most listed sequences are background and not binding sites; settings: protein concentration: 200 nM; construct: GST-full length
T1 sequence: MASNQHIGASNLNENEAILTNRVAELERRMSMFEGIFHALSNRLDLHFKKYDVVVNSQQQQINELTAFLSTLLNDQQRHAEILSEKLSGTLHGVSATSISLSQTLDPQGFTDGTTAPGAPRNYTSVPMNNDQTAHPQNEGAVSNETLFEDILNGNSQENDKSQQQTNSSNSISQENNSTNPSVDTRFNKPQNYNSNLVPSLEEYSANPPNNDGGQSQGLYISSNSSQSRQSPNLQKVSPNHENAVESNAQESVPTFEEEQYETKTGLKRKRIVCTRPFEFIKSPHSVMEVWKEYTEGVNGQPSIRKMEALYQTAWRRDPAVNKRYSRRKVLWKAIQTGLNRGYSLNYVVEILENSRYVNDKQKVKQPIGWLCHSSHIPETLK
Outline: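 Universal all-10-mer Agilent arrays, fresh or stripped once, were converted to double-stranded form by primer extension. GST-tagged yeast transcription factors from PURExpress in vitro transcription/translation, full-length or DNA-binding domain only, were applied at about 100-200 nM and detected with fluorescent anti-GST. After masliner normalisation, the Universal PBM Analysis Suite scored each ungapped eight-base word together with its reverse complement by E-score.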

Sequence | PBM E-score
ACGGAACG | 0.149
ACTAGTTA | 0.196
CCTAATAC | -0.0295
TATCCGGA | 0.277
CCACAACG | -0.0742
CAATCGTG | -0.0361
CCGGGGCG | -0.24
CATCCACG | 0.00062
ATTCTTTA | 0.201
GCCATGCA | -0.00541
GCCGTAAA | 0.00542
AGTCATAA | 0.0855
CTGGGAAA | -0.203
CAGAGCTG | -0.166
AATCAGAC | 0.0545
AGATGACA | 0.157
TCATCTAA | 0.0096
GGAGAAAA | -0.038
GCGCGCTA | 0.194
GTATCTCA | 0.165
AGATTGCG | 0.0722
CACCGTCA | -0.0297
GGTAGTAA | -0.159
AAGGTCGA | 0.0716
GGTCGAAC | -0.0911

Sequence | PBM E-score
AAGATGCA | 0.0346
CCGAGTCC | 0.137
TAATTGAA | -0.031
AATCCCAT | -0.197
CGAGATCG | -0.108
GATCCCGC | -0.139
CCAGCGCC | -0.229
AGACGAAA | 0.291
ATAAATGA | 0.217
GGATACCC | -0.0849
CGCGTCCA | 0.211
CGCCTTTC | -0.189
AACTTTAC | 0.0544
ATGCACCA | -0.162
AAGCGAAT | 0.12
GCTTCTCA | -0.273
CCGGTAGG | -0.158
AGTCTTTC | -0.115
AACTACTC | -0.0512
CCTCGGGA | 0.055
CACTCGGC | 0.148
CGACCCGC | -0.166
CCATATCA | 0.0259
AGCTTCAT | 0.128
ACGCCTGG | -0.139

Sequence | PBM E-score
GTTTTTTA | 0.175
GTACCACA | 0.166
CGGGCAAC | -0.0877
CATAATAG | 0.166
AAGTAAAG | -0.0747
TAGGTAGA | 0.0723
CCTTCAAA | 0.0463
ATTCCCAG | 0.132
TTGTCAAA | 0.18
GTACTCAC | 0.173
AACCTTCG | 0.0972
AACCGTCA | -0.195
CTGGCGAC | -0.223
ATATGCTA | -0.0322
GCAAATAA | 0.0601
CGTCTCTA | -0.135
CCTCCCAA | -0.179
GGAGGAGA | -0.179
CAAATTGC | 0.0736
ACGCTGCT | -0.0404
GAACTAGA | 0.0544
CTTGAATA | 0.131
AGCAATGG | -0.216
GCTTCTAC | -0.0502
GACCAGTC | -0.252

Sequence | PBM E-score
ATGGTGAG | -0.222
AGGACAGA | 0.437
ACTAGCAC | -0.168
CCGGTGAC | -0.0965
CTCCGATA | 0.0677
ATTTTATA | 0.22
AGTTGTAA | -0.062
ATCTGCCC | -0.163
AAACTTAG | -0.0183
TCGATACA | 0.155
CATAGATA | 0.126
TTCGCGAA | 0.1
CGGAAAGC | 0.0609
AAGGTTCC | -0.0412
ATCGCACC | -0.172
CCAAGTGA | -0.0352
GGCGTACC | -0.192
AATGCGGG | 0.145
ATGGAAGC | -0.115
CAGACATC | 0.246
ATTAGGAG | 0.0942
CCGATAAC | 0.172
ACAGTGAT | 0.129
GTTTTGAA | 0.158
GGCGGTAA | 0.115

Sequence | PBM E-score
CCTGATAA | 0.0313
CCCCTAAA | -0.0798
GGATCGCA | -0.0435
CATGGAGA | -0.00044
CCAGGAGA | -0.164
TAACGGTA | 0.0466
TACTTTGA | -0.0407
GGGTCCGA | -0.115
CATCGCTC | -0.202
CCTAACAA | 0.224
CAGGCTGC | -0.131
GTATTAAA | 0.261
AGTCGTCC | -0.0628
AAGCATAC | 0.0589
ACTGCCAC | -0.0354
GTTTTCAA | 0.281
GGAGCATA | -0.021
ACTTGGTC | 0.0793
ACTATGGG | -0.169
CCGCCACG | 0.0559
CACCGTTC | -0.0461
ATCATGGC | -0.129
ACATGTCG | 0.311
GGCGCTGA | -0.166
AATCGTTA | -0.0527

Sequence | PBM E-score
TCCACGGA | 0.299
ATATGCCC | 0.0172
AGGAACTA | -0.0727
ATAGGAAG | -0.192
ATGCCAGG | -0.0762
CGTGATCA | 0.173
ACTGAGGG | -0.159
CTATCATC | 0.0314
CGGTCCAA | -0.0855
ATAAAGCA | 0.093
ATATCAAG | 0.0534
AGATGTAA | 0.102
CCCCTGAG | -0.297
CATACAGG | -0.0332
ATAGTTTA | -0.103
CTAGACGA | -0.156
GCTTGAGA | -0.138
AGTACGGC | -0.0924
AGACTGGG | -0.0326
ACACCGGG | -0.155
CTATGGAG | 0.00025
TATTCTGA | -0.0984
AAGTTTAC | -0.00938
GATGACCC | -0.0627
ACTCGAAC | 0.0435

Sequence | PBM E-score
AGACTGCG | -0.178
GAATTGCA | 0.0426
CCAGCTCC | -0.24
ATACCTAC | 0.0111
AGTATGTA | -0.0186
ATCAAGTA | 0.173
TAGTAAAA | -0.00108
CCATACGA | -0.00556
ACAATCTG | 0.196
AAGCAGTC | -0.0549
TATCCTAA | 0.0366
ACACCGGC | 0.0187
CGACTGTA | -0.147
CTTCACTA | -0.0698
TAGTGCCA | -0.101
ACGCTAGA | -0.284
ACCGAGGA | 0.0151
GGGAAAGA | -0.168
GGGTGCAA | -0.188
TAAAGATA | 0.0041
AAAGACTT | 0.0779
CTGAGATA | 0.166
ACTGAGCT | -0.0939
GTCAATGA | -0.0907
AAAATGCG | 0.0361

Sequence | PBM E-score
CAAGGCGC | -0.0453
ACTAGACG | 0.112
CACAAATG | 0.0377
CAACGGAA | 0.193
GCGGACCC | -0.148
GTACGGCA | -0.01
ATATGGGG | -0.228
AAGAAGTA | 0.0325
AAGATACA | 0.171
GGTCTGTA | -0.109
ATGGGGGC | -0.381
CAGTCCCC | -0.328
CACCAAGC | -0.0817
AGAGAGCG | -0.271
GTCACGGA | 0.308
CAGATTGG | -0.266
CCAGTGAC | -0.0989
ACCGGCAT | 0.0814
ATATGAAC | 0.0766
ACGTTTTC | 0.0216
AAGAATTC | -0.0295
GTCTGAAC | 0.0312
AAGGCGAA | -0.153
ATTAAAAA | 0.327
AGGCAACC | -0.186

Sequence | PBM E-score
GTCCGGCA | 0.19
AAAGGCGC | -0.00349
TCAAGTCA | 0.00434
TCGTGAGA | -0.127
AACCAGGC | 0.0236
CTCGCACC | 0.00375
GGGTATGA | 0.0877
CCAAAAGA | 0.146
GTTAGCAA | 0.148
CACCGACG | 0.0473
AGGCGAGC | -0.0588
CCCATAAG | 0.00475
AATGGCTA | -0.0496
ACCCTAGG | -0.155
AGCCTCCT | -0.183
GGCGAACA | 0.0598
CAACGCAA | 0.11
CGTCGTCC | -0.0457
CCCGGCGG | -0.218
